Test results from the supplement of paper PMC10126150.
Values marked as one replicate rest on one cluster of the flow cell; about a third of the high ones do not repeat.

System: ATP
Experiment: switch fluorescence ratio, 500 uM ATP over buffer (Cy3 cluster intensity, sum of 5 cycles each) (fold (ratio)); higher = stronger signal-on switching upon ATP binding; sequences stand for … in TCGTCGGCAGCGTCAGATGTGTATAAGAGACAGTTTTTTTTTTTTTTTTTTTTTTTTT…TC
Details: aptamer strand: ATP DNA aptamer (quencher-CACCTGGGGGAGTATTGCGGAGGAAGG + anchor), 100 nM annealed; ATP concentration: 500 uM; one replicate
In short: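 Exposure to 500 uM ATP lasted 15 min at 22 °C before imaging, and a selection-buffer image was taken beforehand, for Cy3-labelled switching-strand clusters on a modified Illumina MiSeq flow-cell annealed to 100 nM quencher-labelled ATP aptamer. Five buffer/ATP cycles were run with NaOH stripping and re-annealing between them. The fluorescence ratio per cluster is summed target-cycle over summed buffer-cycle Cy3 intensity, averaged per switch-domain sequence. Clusters outside 100-1000 RFU were excluded.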

| Sequence | switch fluorescence ratio |
| --- | --- |
| CAGGCGTCCT | 1 |
| TATAGTCATG | 1.01 |
| GGTGCAGGTT | 0.975 |
| CTAACAATTG | 0.99 |
| CTAGTGTGAA | 1.02 |
| AGAACTGTAC | 1.61 |
| ACCTCAACGT | 1.14 |
| ATCCATCCGT | 1.03 |
| AGTTAAAAGG | 1.06 |
| AACGTCTGG | 0.981 |
| GACTTCAGGG | 1.03 |
| CAGGGTTGTA | 0.942 |
| CTACAGTGCT | 1.03 |
| TGAGACATGA | 0.973 |
| AACCGGTGAA | 0.992 |
| CAGACGGGAG | 1.07 |
| TGTTGTGACG | 0.942 |
| AATCAAGAAT | 1.04 |
| TCGGTATTAA | 0.994 |
| TGCATCATTC | 1.01 |
| AGGGTTTCGT | 0.991 |
| ATATGGATAT | 1 |
| CCTCCTGGCG | 1.72 |

| Sequence | switch fluorescence ratio |
| --- | --- |
| GACCTCGAG | 0.98 |
| CATCAAGGGG | 1.1 |
| GACCGCTTTA | 1.31 |
| TCGATTGTTT | 3.26 |
| CCACTAGCGG | 1.08 |
| GGCGAGTGTG | 1.02 |
| TCATAGGTAG | 0.952 |
| CATTGGGCAA | 1.16 |
| TGTTGGTTAA | 0.96 |
| CGTTAAAGGT | 1.03 |
| TTTTGCAAT | 6.53 |
| GACTTTCACT | 1.08 |
| ATGGACTCAG | 1.06 |
| ACGTGGTTTA | 1 |
| TGGGTCTCAC | 0.959 |
| GTTTGTTAA | 1.04 |
| TCAGTCGGCA | 0.996 |
| CAGTAAGCGT | 0.976 |
| AGGTTTCGAA | 0.969 |
| CGATTTGGAT | 0.98 |
| AATGTGGGCG | 0.98 |
| GGGCGTTACG | 0.967 |
| GGGTATCAAA | 1 |

| Sequence | switch fluorescence ratio |
| --- | --- |
| ACCTCCCTAG | 1.24 |
| ATCTTGACCT | 1.3 |
| ATTGGGAAGC | 0.929 |
| ATCTCATAGC | 0.966 |
| TGATGAAAAT | 0.957 |
| ACATGCAGCG | 1.01 |
| GACCTTAACT | 1.05 |
| CACTTTTGGC | 1.13 |
| TCCAGTCACA | 1.04 |
| CACATAAGCG | 1.05 |
| TATGACGGG | 1.01 |
| CGTTAAAAAT | 0.996 |
| AATTGATAAG | 1.03 |
| CATAGCCCTC | 1.02 |
| TGAAAAACT | 1.05 |
| GACCGCGGAA | 1.01 |
| AGGAATCTCT | 0.967 |
| CATGGAGGTA | 1.02 |
| TTTAATCGTA | 0.964 |
| GGTGTTACGG | 0.994 |
| GCTTACTTTC | 1.02 |
| GAGTTTTCGA | 1.02 |
| ATGGTCTCAG | 0.966 |

| Sequence | switch fluorescence ratio |
| --- | --- |
| GGGGTGGCTT | 0.996 |
| ATCGTAGCGC | 1.27 |
| GCTCGGGAGG | 0.966 |
| CAGCTCAACT | 1.03 |
| TAAGAAGTGT | 1.05 |
| TATCCGGTCC | 1.08 |
| TATGCTCGCA | 1.03 |
| TGTTAAGACA | 1.08 |
| CCAGGACTTT | 1.02 |
| AGGGCACTTG | 1.01 |
| AATTTTTGAA | 0.961 |
| CGGACCGGCA | 1.02 |
| AAGCATATAT | 1.36 |
| CTAGGGCACT | 1.02 |
| TCAGTCCGGT | 0.97 |
| TGGAGTATGG | 1.06 |
| CCGTGAACAT | 1.04 |
| ATCATCTTGA | 0.999 |
| GAAAAAACTC | 1.11 |
| CGGTTGCGCG | 0.976 |
| ACCGTTACGA | 1.08 |
| TCGGTGACGA | 1.06 |
| CGGGAGGACA | 1.01 |

| Sequence | switch fluorescence ratio |
| --- | --- |
| GCTGCTTTCG | 0.979 |
| GTCGGATGTA | 0.956 |
| TCGTATGGAT | 0.973 |
| AAGCTTGGGG | 1.04 |
| TGCCTTCAAC | 1.09 |
| GGTCGTAGCT | 0.959 |
| AGGTGTCACT | 0.976 |
| CAATGAGCGG | 0.953 |
| CTCCTAGGC | 1.28 |
| CAGCTTGATT | 1.01 |
| ACAGAGGGCT | 1.03 |
| TGAAAGGGCT | 1.01 |
| GTAGAGCCGG | 1.02 |
| CGCTTTAGAA | 1.01 |
| ACGCGGCACG | 1.02 |
| TCTCTCACGA | 1.05 |
| TGTTAGGAGT | 1.07 |
| GGGAAGTAGG | 1 |
| TGAGGTGACG | 0.917 |
| TGACGGACCT | 1.27 |
| AGTATCAACG | 0.994 |
| TTGGAAAACA | 1.01 |
| TAGTTCGCGG | 0.972 |

| Sequence | switch fluorescence ratio |
| --- | --- |
| AAGGGTTTG | 0.984 |
| CGGTACCGAG | 1.02 |
| TGGGTGTTAC | 0.993 |
| CACTAACTTC | 1.11 |
| CATGAGCAAG | 1.68 |
| TACGTATTAC | 2.14 |
| CGCTCAGGGG | 2.09 |
| TATTTTAAAG | 0.992 |
| CATCGGGAAA | 1.05 |
| GGTGTAGCCC | 0.992 |
| CTGCGTATTC | 1.41 |
| TGTATCGACG | 1.02 |
| CGGTACAGCT | 0.988 |
| TAATGCAGCC | 1.01 |
| ATGTCATAGG | 0.992 |
| TACCGCTTGA | 1.04 |
| AGGGCTGAGA | 0.963 |
| GCTTTAGACG | 0.914 |
| GAAGCATGGA | 1.2 |
| TGCTTGCTGA | 1.01 |
| GTGGTTCTCA | 1.01 |
| ACAAGGGCAC | 0.991 |
| TTTTCGGTTC | 1.03 |

| Sequence | switch fluorescence ratio |
| --- | --- |
| ACTGTCAGCT | 1.02 |
| GCGAGATGTA | 0.995 |
| CCTCTCAGGA | 1.1 |
| TCGCTCGGTC | 1.03 |
| TCGAAAGTTG | 1.06 |
| TGGTCATGCA | 1.03 |
| CTGTGCCGTC | 1.11 |
| TAATGCGAA | 1.03 |
| GCGCTTGTTC | 1.01 |
| CACAAATCTA | 1.05 |
| ATAATAATCC | 0.982 |
| GCCAGGTATT | 1 |
| CGGCGTATCG | 0.968 |
| AGGGGTGTAA | 1.02 |
| GTTATTGCCG | 0.984 |
| CGGGGTGGG | 1.08 |
| TCTCATGCTG | 0.977 |
| GGACATTCAT | 0.984 |
| GGGGTATAAA | 0.994 |
